The source of these data is publication PMC4242493.

Some of the results follow. The list includes weakly bound sequences.

For the experiment, the target named is MaxL homodimer (UniProt P61244). The experiment can be described thus: universal protein-binding microarray (PBM). The conditions noted are these: PBS-based mixture, 10 nM His-tagged protein dimer, 2% milk, 200 ng/uL BSA, 50 ng/uL salmon testes DNA, 0.02% TX-100; detection with Alexa 488 anti-His …; high values mean tight binding; most listed sequences are background and not binding sites; double strand, one strand shown.
Sequence of UniProt P61244 (P61244 whole entry): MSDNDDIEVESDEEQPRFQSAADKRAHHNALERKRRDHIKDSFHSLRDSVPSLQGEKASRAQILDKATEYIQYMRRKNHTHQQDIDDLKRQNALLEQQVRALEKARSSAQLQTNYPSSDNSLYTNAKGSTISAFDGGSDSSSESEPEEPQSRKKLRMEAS
As to AGACTCGC, the binding signal (normalized occupancy) stood at 0.0708.

For TATCAAGA, the binding signal (normalized occupancy) came to 0.0806.

In the case of TTACAGAA, the binding signal (normalized occupancy) is 0.0782.

For the sequence ATCAGAAT, the binding signal (normalized occupancy) stood at 0.0779.

Consider AAAACACC, for which the binding signal (normalized occupancy) came out at 0.0711.

As to ACTATACC, the binding signal (normalized occupancy) amounted to 0.0791.

As for AGCATACG, the binding signal (normalized occupancy) was 0.0797.

With ATACACAA, the binding signal (normalized occupancy) came to 0.0801.

CTAATAGC: the binding signal (normalized occupancy) amounted to 0.0742.

On to TCGCGCCA, for which the binding signal (normalized occupancy) turned out to be 0.0678.

As to ACTGATAA, the binding signal (normalized occupancy) is 0.0792.

Regarding ACTTTTAC, the binding signal (normalized occupancy) was 0.0751.

CCGGTTCC: the binding signal (normalized occupancy) was 0.0684.

Regarding CTCGTTGA, the binding signal (normalized occupancy) is 0.0795.

On to GCTTAGGA, for which the binding signal (normalized occupancy) came out at 0.0763.

In the case of CAGTCCGC, the binding signal (normalized occupancy) came out at 0.0669.

Consider TCAAGGAA, for which the binding signal (normalized occupancy) came to 0.0712.

For the sequence GCGTGGCC, the binding signal (normalized occupancy) stood at 0.0977.

For ATTAATAA, the binding signal (normalized occupancy) came out at 0.0792.

On to AACGCTCA, for which the binding signal (normalized occupancy) was found to be 0.073.

Regarding GTAACCGA, the binding signal (normalized occupancy) came out at 0.0706.

As for CCTACCCA, the binding signal (normalized occupancy) was determined as 0.0832.

In the case of GTTCTTAA, the binding signal (normalized occupancy) is 0.07.

In the case of CGGTCAAC, the binding signal (normalized occupancy) is 0.073.

For ATGACGTG, the binding signal (normalized occupancy) came out at 0.0885.

Regarding GCCCGGGC, the binding signal (normalized occupancy) came out at 0.0643.

With ATATGACC, the binding signal (normalized occupancy) was 0.0877.

With AGGGTTGG, the binding signal (normalized occupancy) was 0.078.

As for AATCCATG, the binding signal (normalized occupancy) was 0.0812.

Regarding ACTTATGG, the binding signal (normalized occupancy) turned out to be 0.0844.

With CACAGACG, the binding signal (normalized occupancy) was 0.0662.

GGCTGTAC: the binding signal (normalized occupancy) was 0.071.

Consider AGGCACAC, for which the binding signal (normalized occupancy) came to 0.0801.

For the sequence CTACACTC, the binding signal (normalized occupancy) worked out at 0.0802.

For GTCTTGCA, the binding signal (normalized occupancy) was determined as 0.0721.

For the sequence GAGCCGTA, the binding signal (normalized occupancy) was 0.0685.

AGAGCATG: the binding signal (normalized occupancy) was 0.0989.

Take GATAATCA: the binding signal (normalized occupancy) turned out to be 0.0856.

GATTGCCA: the binding signal (normalized occupancy) came to 0.0763.

With CGATGTTA, the binding signal (normalized occupancy) stood at 0.0792.

With GAGGCGAA, the binding signal (normalized occupancy) was found to be 0.0686.

In the case of ATATTGAT, the binding signal (normalized occupancy) worked out at 0.0816.

Take CCACCTTA: the binding signal (normalized occupancy) stood at 0.0756.

As to AGATCTTA, the binding signal (normalized occupancy) stood at 0.0797.

With ACTTTCGC, the binding signal (normalized occupancy) was found to be 0.076.

With AAGACTGT, the binding signal (normalized occupancy) stood at 0.0716.

As to ATATGATG, the binding signal (normalized occupancy) stood at 0.0886.

Take CGGCGAAA: the binding signal (normalized occupancy) stood at 0.068.

CCCTAGAG: the binding signal (normalized occupancy) is 0.0723.

With AAAACACG, the binding signal (normalized occupancy) is 0.0851.

For ATTGGATC, the binding signal (normalized occupancy) amounted to 0.0791.

With CTCACGGC, the binding signal (normalized occupancy) worked out at 0.0724.

As for ACCACAGG, the binding signal (normalized occupancy) came out at 0.0732.

For ATCGCACA, the binding signal (normalized occupancy) came out at 0.0803.

Regarding AGTGCTCA, the binding signal (normalized occupancy) was 0.0761.

In the case of ACCCTTCC, the binding signal (normalized occupancy) came to 0.0751.

Take CGTAACCC: the binding signal (normalized occupancy) stood at 0.0788.

As for CTGGTAGC, the binding signal (normalized occupancy) came out at 0.0698.

For AGCGCCGA, the binding signal (normalized occupancy) turned out to be 0.0647.

Consider GAGTTCAA, for which the binding signal (normalized occupancy) is 0.0741.

Consider CGCAGGCC, for which the binding signal (normalized occupancy) worked out at 0.07.

ATCGACGG: the binding signal (normalized occupancy) was determined as 0.0723.

For the sequence CCGCCATC, the binding signal (normalized occupancy) was 0.0766.

As for TAAGTTGA, the binding signal (normalized occupancy) was 0.0737.

Consider CAGAGCCA, for which the binding signal (normalized occupancy) was found to be 0.0749.

On to AACCTGGT, for which the binding signal (normalized occupancy) stood at 0.0793.

On to AATTGGTC, for which the binding signal (normalized occupancy) was found to be 0.0704.

As to AGTACCCA, the binding signal (normalized occupancy) turned out to be 0.0812.

For ATCTCAAC, the binding signal (normalized occupancy) came to 0.0783.

In the case of AACACACC, the binding signal (normalized occupancy) came to 0.0814.

On to GATGGTAC, for which the binding signal (normalized occupancy) is 0.0754.

Turning to CTAGTAAC, the binding signal (normalized occupancy) was 0.0773.

As to CCTACGCA, the binding signal (normalized occupancy) amounted to 0.0816.

For the sequence AAATACGG, the binding signal (normalized occupancy) was 0.0732.

CTATCTCC: the binding signal (normalized occupancy) was determined as 0.0798.

Turning to CTGGTTAA, the binding signal (normalized occupancy) came to 0.0718.

For the sequence CACACCAG, the binding signal (normalized occupancy) was 0.0838.

For the sequence GCTTTGCC, the binding signal (normalized occupancy) worked out at 0.0676.

For the sequence AACACAAC, the binding signal (normalized occupancy) stood at 0.0785.

Turning to GCCGAGAC, the binding signal (normalized occupancy) stood at 0.07.

In the case of GTCTTTCA, the binding signal (normalized occupancy) came to 0.0748.

As to GTAAGTAC, the binding signal (normalized occupancy) amounted to 0.0781.

Turning to AAGGATGA, the binding signal (normalized occupancy) is 0.0818.

As to ATTGGACA, the binding signal (normalized occupancy) is 0.0763.

As to AATAGGTG, the binding signal (normalized occupancy) stood at 0.0788.

Take CCCGTACC: the binding signal (normalized occupancy) stood at 0.0725.

Consider GTTGGATA, for which the binding signal (normalized occupancy) was determined as 0.0817.

ATCCCCTG: the binding signal (normalized occupancy) turned out to be 0.0825.

Turning to ATACTGTA, the binding signal (normalized occupancy) came to 0.084.

In the case of GAGACCCC, the binding signal (normalized occupancy) was 0.0771.

For CAGAATGC, the binding signal (normalized occupancy) was found to be 0.0712.

Take TAGCCGGA: the binding signal (normalized occupancy) worked out at 0.0671.

ACCGACTC: the binding signal (normalized occupancy) was determined as 0.0705.

Consider TAGCACTA, for which the binding signal (normalized occupancy) was determined as 0.0738.

As to CACTGATA, the binding signal (normalized occupancy) turned out to be 0.0767.

Take AAGTTCGT: the binding signal (normalized occupancy) worked out at 0.0716.

For the sequence CAGACTCA, the binding signal (normalized occupancy) turned out to be 0.0702.

Regarding GGCAAACA, the binding signal (normalized occupancy) came to 0.078.

CAAAGGTG: the binding signal (normalized occupancy) was 0.0766.

For ACATTCCA, the binding signal (normalized occupancy) stood at 0.0796.

Consider AGTGCAAC, for which the binding signal (normalized occupancy) is 0.0732.

Turning to ACAATAAT, the binding signal (normalized occupancy) came to 0.0764.

With CCCGATTC, the binding signal (normalized occupancy) amounted to 0.0781.

Consider CCCCCTTC, for which the binding signal (normalized occupancy) worked out at 0.0788.

As for GAATGAAA, the binding signal (normalized occupancy) stood at 0.0714.

In the case of ACGACAAT, the binding signal (normalized occupancy) amounted to 0.0733.

Consider GATAGAGC, for which the binding signal (normalized occupancy) came to 0.0753.

Turning to AGGCCTCA, the binding signal (normalized occupancy) came to 0.0762.

With GATGATCA, the binding signal (normalized occupancy) was determined as 0.077.

In the case of CTCTTAGA, the binding signal (normalized occupancy) was 0.0693.

Turning to AGCCACAC, the binding signal (normalized occupancy) was 0.082.

As to AGTGCGCC, the binding signal (normalized occupancy) is 0.0735.

With CTCCACCC, the binding signal (normalized occupancy) is 0.0759.

In the case of CACCCACC, the binding signal (normalized occupancy) was found to be 0.0828.

For AGTCTAGC, the binding signal (normalized occupancy) was determined as 0.0741.

For the sequence CCGTAGCG, the binding signal (normalized occupancy) is 0.066.

On to CTGGGTAC, for which the binding signal (normalized occupancy) was 0.0731.

As for GATTTTAC, the binding signal (normalized occupancy) was 0.08.

As to TCAGTGAA, the binding signal (normalized occupancy) was found to be 0.0721.

As for AGGTTCGC, the binding signal (normalized occupancy) was 0.0729.

Regarding CCGTGGGC, the binding signal (normalized occupancy) turned out to be 0.0706.

In the case of ACACAGGT, the binding signal (normalized occupancy) was 0.0791.

For GCTCAGAA, the binding signal (normalized occupancy) is 0.0705.

In the case of AGAGTTCG, the binding signal (normalized occupancy) was determined as 0.0724.

Take AGTAGAAG: the binding signal (normalized occupancy) stood at 0.0704.

Take ACCCCGTA: the binding signal (normalized occupancy) was 0.0818.

As to ACTTGCAG, the binding signal (normalized occupancy) turned out to be 0.0753.

Turning to ACAACTAA, the binding signal (normalized occupancy) turned out to be 0.0755.

Consider AAGAAAAG, for which the binding signal (normalized occupancy) is 0.0711.

As for CGCTCCGA, the binding signal (normalized occupancy) came out at 0.0666.

In the case of CTAGTCGA, the binding signal (normalized occupancy) was 0.0739.

On to CCCTCGTA, for which the binding signal (normalized occupancy) was 0.0771.

Take CATGCCCG: the binding signal (normalized occupancy) was 0.0842.

For AATTCGAT, the binding signal (normalized occupancy) amounted to 0.0739.

Turning to AACGGTAT, the binding signal (normalized occupancy) worked out at 0.0763.

Turning to AGGCAAGG, the binding signal (normalized occupancy) stood at 0.0749.

For ATGGGCAG, the binding signal (normalized occupancy) is 0.0789.

For the sequence ATAATCCG, the binding signal (normalized occupancy) turned out to be 0.0762.

Consider AGCCAGGC, for which the binding signal (normalized occupancy) came to 0.0741.

In the case of CTCCCATA, the binding signal (normalized occupancy) was 0.0803.

As to CACTTATA, the binding signal (normalized occupancy) was determined as 0.0766.

For the sequence AGAAAAAT, the binding signal (normalized occupancy) was 0.0708.

For the sequence AACCAGAG, the binding signal (normalized occupancy) is 0.0706.

Turning to CTGAGGGA, the binding signal (normalized occupancy) amounted to 0.0699.

As for CCCTGCTC, the binding signal (normalized occupancy) is 0.0692.

On to CCGGTCTA, for which the binding signal (normalized occupancy) was found to be 0.0685.

In the case of GTATACAC, the binding signal (normalized occupancy) was found to be 0.0823.

As for GGCGACAA, the binding signal (normalized occupancy) came out at 0.0667.

As for CAGGACCC, the binding signal (normalized occupancy) was found to be 0.0681.

As for ACATTGGC, the binding signal (normalized occupancy) amounted to 0.08.

Turning to CCGAAGAC, the binding signal (normalized occupancy) amounted to 0.068.

Regarding CAGGGATA, the binding signal (normalized occupancy) came out at 0.0756.

Consider TCTTAAGA, for which the binding signal (normalized occupancy) was determined as 0.0691.

CCGGAGAG: the binding signal (normalized occupancy) came to 0.0728.

In the case of AGGCCCAG, the binding signal (normalized occupancy) was determined as 0.0691.

TGAACAAA: the binding signal (normalized occupancy) worked out at 0.075.

Turning to AAGACATC, the binding signal (normalized occupancy) was determined as 0.0756.

Take CCTCCTCG: the binding signal (normalized occupancy) worked out at 0.0722.

For the sequence AGGCAATG, the binding signal (normalized occupancy) came out at 0.0753.

For the sequence GCTACCAC, the binding signal (normalized occupancy) stood at 0.0792.

With CACCCAGC, the binding signal (normalized occupancy) came to 0.0745.

For CCCTATCC, the binding signal (normalized occupancy) turned out to be 0.0805.

As to ACGCCTTG, the binding signal (normalized occupancy) worked out at 0.0774.

In the case of CACTACCC, the binding signal (normalized occupancy) is 0.0784.

For GTATCCCA, the binding signal (normalized occupancy) stood at 0.0826.

ACTGTCCG: the binding signal (normalized occupancy) was found to be 0.071.

Turning to GGAGTCCC, the binding signal (normalized occupancy) is 0.0706.

CAATCACC: the binding signal (normalized occupancy) was found to be 0.0797.

Turning to ACAGTGAG, the binding signal (normalized occupancy) worked out at 0.0743.

As for CGAATGCG, the binding signal (normalized occupancy) amounted to 0.0744.

In the case of CTAAGTAC, the binding signal (normalized occupancy) was 0.0754.

On to CAGAAGCC, for which the binding signal (normalized occupancy) came to 0.0722.
